# Results from the supplement of paper PMC8728848.
# The list shows a part of the results.
# B1: Gal 9 (Homo sapiens), O00182 (protein)
# chain: MAFSGSQAPYLSPAVPFSGTIQGGLQDGLQITVNGTVLSSSGTRFAVNFQTGFSGNDIAFHFNPRFEDGGYVVCNTRQNGSWGPEERKTHMPFQKGMPFDLCFLVQSSDFKVMVNGILFVQYFHRVPFHRVDTISVNGSVQLSYISFQNPRTVPVQPAFSTVPFSQPVCFPPRPRGRRQKPPGVWPANPAPITQTVIHTVQSAPGQMFSTPAIPPMMYPHPAYPMPFITTILGGLYPSKSILLSGTVLPSAQRFHINLCSGNHIAFHLNPRFDENAVVRNTQIDNSWGSEERSLPRKMPFVRGQSFSVWILCEAHCLKVAVDGQHLFEYYHRLRNLPTINRLEVGGDIQLTHVQT
# Legend:
# Experiment in all cases: glycan array binding signal (z-score within array); higher = stronger binding
# Conditions in all cases: glycan notation: IUPAC condensed, linker removed
# [1] = target: Fuc(a1-2)[GalNAc(a1-3)]Gal(b1-3)GlcNAc
# In short: (§1)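 The Consortium for Functional Glycomics database supplied 3228 glycan arrays, of which those lacking an available protein sequence were dropped. The binding signal, a within-array Z-score, was averaged across arrays of the same protein sequence and across linkers. Negative scores can be read as non-binding.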
# [2] = target: Fuc(a1-2)[GalNAc(a1-3)]Gal(b1-3)GlcNAc(b1-2)Man(a1-3)[Fuc(a1-2)[GalNAc(a1-3)]Gal(b1-3)GlcNAc(b1-2)Man(a1-6)]Man(b1-4)GlcNAc(b1-4)GlcNAc
# In short: as §1
# [3] = target: Fuc(a1-2)[GalNAc(a1-3)]Gal(b1-3)GlcNAc(b1-2)Man(a1-3)[Fuc(a1-2)[GalNAc(a1-3)]Gal(b1-3)GlcNAc(b1-2)Man(a1-6)]Man(b1-4)GlcNAc(b1-4)[Fuc(a1-6)]GlcNAc
# In short: as §1
# [4] = target: Fuc(a1-2)[GalNAc(a1-3)]Gal(b1-3)GlcNAc(b1-3)GalNAc
# In short: as §1
# [5] = target: Fuc(a1-2)[GalNAc(a1-3)]Gal(b1-3)GlcNAc(b1-6)GalNAc
# In short: as §1
# [6] = target: Fuc(a1-2)[GalNAc(a1-3)]Gal(b1-4)Glc
# In short: as §1
# [7] = target: Fuc(a1-2)[GalNAc(a1-3)]Gal(b1-4)GlcNAc
# In short: as §1
# [8] = target: Fuc(a1-2)[GalNAc(a1-3)]Gal(b1-4)GlcNAc(b1-2)Man
# In short: as §1
# [9] = target: Fuc(a1-2)[GalNAc(a1-3)]Gal(b1-4)GlcNAc(b1-2)Man(a1-3)[Fuc(a1-2)[GalNAc(a1-3)]Gal(b1-4)GlcNAc(b1-2)Man(a1-6)]Man(b1-4)GlcNAc(b1-4)GlcNAc
# In short: as §1
# [10] = target: Fuc(a1-2)[GalNAc(a1-3)]Gal(b1-4)GlcNAc(b1-2)Man(a1-3)[Fuc(a1-2)[GalNAc(a1-3)]Gal(b1-4)GlcNAc(b1-2)Man(a1-6)]Man(b1-4)GlcNAc(b1-4)[Fuc(a1-6)]GlcNAc
# In short: as §1
# [11] = target: Fuc(a1-2)[GalNAc(a1-3)]Gal(b1-4)GlcNAc(b1-3)Gal(b1-4)GlcNAc
# In short: as §1
# [12] = target: Fuc(a1-2)[GalNAc(a1-3)]Gal(b1-4)GlcNAc(b1-3)Gal(b1-4)GlcNAc(b1-3)Gal(b1-4)GlcNAc
# In short: as §1
# [13] = target: Fuc(a1-2)[GalNAc(a1-3)]Gal(b1-4)GlcNAc(b1-3)GalNAc
# In short: as §1
# [14] = target: Fuc(a1-2)[GalNAc(a1-3)]Gal(b1-4)GlcNAc(b1-3)[Fuc(a1-2)[GalNAc(a1-3)]Gal(b1-4)GlcNAc(b1-6)]GalNAc
# In short: as §1
# [15] = target: Fuc(a1-2)[GalNAc(a1-3)]Gal(b1-4)GlcNAc(b1-6)GalNAc
# In short: as §1
# [16] = target: Fuc(a1-2)[GalNAc(a1-3)]Gal(b1-4)[Fuc(a1-3)]GlcNAc
# In short: as §1
# [17] = target: Fuc(a1-2)[GalNAc(a1-3)]Gal(b1-4)[Fuc(a1-3)]GlcNAc(b1-3)GalNAc
# In short: as §1
# [18] = target: Fuc(a1-2)[GalNAc(a1-4)]Gal(b1-4)GlcNAc
# In short: as §1
# [19] = target: Fuc(a1-2)[GalNAc(b1-3)]Gal
# In short: as §1
# Fuc(a1-3)GlcNAc = target: Fuc(a1-3)GlcNAc
# In short: as §1
# [20] = target: Fuc(a1-3)[Gal(b1-4)]Glc6S
# In short: as §1
# [21] = target: Fuc(a1-3)[Gal(b1-4)]GlcNAc
# In short: as §1
# [22] = target: Fuc(a1-3)[Gal(b1-4)]GlcNAc(b1-2)Man
# In short: as §1
# [23] = target: Fuc(a1-3)[Gal(b1-4)]GlcNAc(b1-2)Man(a1-3)[Fuc(a1-3)[Gal(b1-4)]GlcNAc(b1-2)Man(a1-6)]Man(b1-4)GlcNAc(b1-4)GlcNAc
# In short: as §1
# [24] = target: Fuc(a1-3)[Gal(b1-4)]GlcNAc(b1-2)Man(a1-3)[Fuc(a1-3)[Gal(b1-4)]GlcNAc(b1-2)Man(a1-6)]Man(b1-4)GlcNAc(b1-4)[Fuc(a1-6)]GlcNAc
# In short: as §1
# [25] = target: Fuc(a1-3)[Gal(b1-4)]GlcNAc(b1-3)Gal(b1-3)[Fuc(a1-4)]GlcNAc
# In short: as §1
# [26] = target: Fuc(a1-3)[Gal(b1-4)]GlcNAc(b1-3)GalNAc
# In short: as §1
# [27] = target: Fuc(a1-3)[Gal(b1-4)]GlcNAc(b1-4)Gal(b1-4)[Fuc(a1-3)]GlcNAc
# In short: as §1
# [28] = target: Fuc(a1-3)[Gal(b1-4)]GlcNAc(b1-4)Gal(b1-4)[Fuc(a1-3)]GlcNAc(b1-4)Gal(b1-4)[Fuc(a1-3)]GlcNAc
# In short: as §1
# [29] = target: Fuc(a1-3)[Gal(b1-4)]GlcNAc(b1-6)GalNAc
# In short: as §1
# [30] = target: Fuc(a1-3)[Gal(b1-4)]GlcNAc(b1-6)[Gal(b1-3)GlcNAc(b1-3)]Gal(b1-4)Glc
# In short: as §1
# [31] = target: Fuc(a1-3)[Gal(b1-4)]GlcNAc6S
# In short: as §1
# [32] = target: Fuc(a1-3)[Gal3S(b1-4)]Glc
# In short: as §1
# [33] = target: Fuc(a1-3)[Gal3S(b1-4)]GlcNAc
# In short: as §1
# [34] = target: Fuc(a1-3)[Gal3S(b1-4)]GlcNAc6S
# In short: as §1
# [35] = target: Fuc(a1-3)[GalNAc(b1-4)]GlcNAc
# In short: as §1
# [36] = target: Fuc(a1-3)[GalNAc(b1-4)]GlcNAc6S
# In short: as §1
binder,measurement,setting,value
B1,glycan array binding signal (z-score),[1],0.055
same,glycan array binding signal (z-score),[2],1.63
same,glycan array binding signal (z-score),[3],3.85
same,glycan array binding signal (z-score),[4],-0.18
same,glycan array binding signal (z-score),[5],1.79
same,glycan array binding signal (z-score),[6],0.482
same,glycan array binding signal (z-score),[7],0.325
same,glycan array binding signal (z-score),[8],1.99
same,glycan array binding signal (z-score),[9],4.39
same,glycan array binding signal (z-score),[10],0.54
same,glycan array binding signal (z-score),[11],1.49
same,glycan array binding signal (z-score),[12],1.85
same,glycan array binding signal (z-score),[13],-0.298
same,glycan array binding signal (z-score),[14],0.963
same,glycan array binding signal (z-score),[15],-0.097
same,glycan array binding signal (z-score),[16],-0.32
same,glycan array binding signal (z-score),[17],-0.288
same,glycan array binding signal (z-score),[18],-0.306
same,glycan array binding signal (z-score),[19],-0.311
same,glycan array binding signal (z-score),Fuc(a1-3)GlcNAc,-0.32
same,glycan array binding signal (z-score),[20],-0.321
same,glycan array binding signal (z-score),[21],-0.315
same,glycan array binding signal (z-score),[22],-0.258
same,glycan array binding signal (z-score),[23],-0.321
same,glycan array binding signal (z-score),[24],-0.283
same,glycan array binding signal (z-score),[25],-0.31
same,glycan array binding signal (z-score),[26],-0.308
same,glycan array binding signal (z-score),[27],-0.303
same,glycan array binding signal (z-score),[28],-0.332
same,glycan array binding signal (z-score),[29],-0.299
same,glycan array binding signal (z-score),[30],-0.236
same,glycan array binding signal (z-score),[31],-0.311
same,glycan array binding signal (z-score),[32],-0.295
same,glycan array binding signal (z-score),[33],-0.318
same,glycan array binding signal (z-score),[34],-0.225
same,glycan array binding signal (z-score),[35],-0.31
same,glycan array binding signal (z-score),[36],-0.297
